Assay results from PubChem BioAssay AID686970 (National Center for Advancing Translational Sciences (NCATS), 2013).
The whole screen tested about 360,000 compounds, of which about 6,000 (1.7%) were called active. Inconclusive results, whose numbers are uncertain, are shown with a selection of clear calls. Calls follow the shape of the dose curve; as a rule, active = well fitted cell-killing curve with a large enough effect; inconclusive = small, poorly fitted or top-dose-only effect, or effect the other way; inactive = flat fitted curve, though single readings scatter. No potency is given beside an inconclusive call; the fits are too rough.

assay: qHTS for induction of synthetic lethality in tumor cells producing 2HG: qHTS for the HT-1080-NT fibrosarcoma cell line; conditions: HT-1080-NT fibrosarcoma viability, CellTiter-Glo ATP luminescence, 48 h; activity, negative = less viability: at 46.1 µM (top of the series) unless noted;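 also: NT is the 2HG producing partner of a matched IDH1 knockdown line; nearly all actives have a fitted effect of over 55% in size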;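 as to activity, negative = less viability: 0% = DMSO-treated cells and -100% = media-only wells without cells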
Summary of the method: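 Compounds were tested in concentration-response format on HT-1080-NT cells for 48 hours at 37 degrees C. Cell viability came from CellTiter-Glo luminescence; curves were classified by r2, response magnitude and activity.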
Potency is read from the fitted curve at half-maximal effect; tags tell the direction and shape of the fitted curve.

Row | Structure (SMILES) | activity, negative = less viability | Potency
1 | COc1ccc(Br)cc1-c1nc2c(c(=O)[nH]c(=O)n2Cc2ccccc2)n1C | inconclusive: -1.22% [cytotoxic] | 
2 | O=C(C=C=Nc1ccccc1)C(=O)N=C=Cc1ccccc1 |  | active: 6.51 µM
3 | CCN1CCN(c2ccc(N3CCN(S(=O)(=O)c4cc([N+](=O)[O-])ccc4C)CC3)nn2)CC1 |  | inactive
4 | N#CC(C#N)=CN=c1ccn(Cc2ccc(Cl)cc2Cl)cc1 |  | inconclusive [cytotoxic, full curve]
5 | Cn1nccc1C(=O)NC1CCCc2c1cnn2-c1ccc(F)cc1F (configuration not stated) |  | inconclusive [cytotoxic, full curve]
6 | CCOC(=O)C1(Cc2ccccc2)CCN(Cc2nccn2CC)CC1 |  | inactive
7 | COc1ccc(-c2cn[nH]c2-c2ccc(OCC(=O)NN)cc2O)cc1OC |  | inconclusive [cytotoxic, partial curve, poor fit]
8 | CC(=O)c1cccc(NC(=O)C(C)N2CCc3ccccc3C2)c1 (configuration not stated) |  | inactive
9 | O=C(/C(=C/c1ccc(Cl)cc1)c1nc2ccccc2[nH]1)c1ccccc1 |  | active: 2.91 µM
10 | O=C(OCc1ccc(Br)cc1)c1cc([N+](=O)[O-])ccc1N1CCOCC1 |  | inconclusive [cytotoxic, full curve]
11 | CC(C)(C)c1ccc(C(=O)NCC(=O)N2CCC3(CC2)NCCc2[nH]cnc23)cc1 |  | inactive
12 | O=C(Nc1cccc(Cl)c1)C1C2CCC3C(CCC21)C3(Cl)Cl (configuration not stated) |  | inconclusive [cytotoxic, single point]
13 | Cc1[nH]c2ccccc2c1C(=O)/C=C\c1ccccc1Cl |  | inconclusive [cytotoxic, single point]
14 | COC(=O)c1ccc(C2/C(=C(/O)c3ccc4c(c3)CC(C)O4)C(=O)C(=O)N2Cc2cccnc2)cc1 (configuration not stated) |  | inconclusive [rising, single point]
15 | C=CCC[C@H](Cc1ccc(F)cc1)C(=O)OC[C@H](Cc1c[nH]c2ccccc12)NC(=O)[C@@H](CC=C)CC(=O)N[C@H](CO)Cc1ccccc1 |  | active: 20.6 µM
16 | O=[N+]([O-])c1ccc(N2CCOCC2)cc1O | inconclusive: 6.44% [cytotoxic] | 
17 | CC(C)(C)OC(=O)N1CCC(NC(=O)c2[nH]cnc2C(=O)N[C@@H](Cc2ccccc2)C(=O)OCc2ccccc2)CC1 |  | inconclusive [cytotoxic, single point]
18 | Cc1ccc(SCCNC(=O)c2ccc(C)c(S(=O)(=O)Nc3cccc(C)c3)c2)cc1 |  | inconclusive [cytotoxic, single point]
19 | O=C(Nc1ccc(F)cc1)OCCOc1ccc([N+](=O)[O-])cc1 |  | inactive
20 | O=C(COC(=O)/C(=C/c1cccs1)c1cccs1)NC(c1ccccc1)c1ccccc1 |  | inactive
21 | O=C(Cn1c(-c2ccccc2)c[n+]2ccsc12)c1ccc([N+](=O)[O-])cc1 |  | inconclusive [cytotoxic, single point]
22 | Cc1ccc(OCCN2C(=O)NC3(CCc4ccccc4C3)C2=O)cc1 (configuration not stated) |  | inactive
23 | FC(F)(F)c1cccc(NC(=S)NCc2ccccn2)c1 |  | inactive
24 | CC(=O)c1ccc(OCC(=O)N2CCCC2c2ccc3c(c2)OCCCO3)cc1 (configuration not stated) |  | inactive

Row | Structure (SMILES) | activity, negative = less viability | Potency
25 | COc1ccc(/C=C/C(=O)NC(=S)NNC(=O)c2cccs2)cc1 | inconclusive: -16.8% [cytotoxic] | 
26 | O=C(c1cc(-c2ccc(Cl)cc2)n(-c2ccc(Cl)c(Cl)c2)n1)N1CCOCC1 |  | inconclusive [cytotoxic, single point]
27 | O=C(c1ccc(Cl)c(S(=O)(=O)N2CCCCC2)c1)N1CCN(c2ccccc2)CC1 |  | inactive
28 | O=Cc1cc([N+](=O)[O-])ccc1N1CCN(Cc2ccc3c(c2)OCO3)CC1 |  | inactive
29 | O=C(c1cc2cc(F)ccc2[nH]1)N1CCN(C(=O)c2ccco2)CC1 |  | inactive
30 | COc1ccc(OCCN2CCN(S(=O)(=O)c3ccccc3C#N)CC2)cc1 |  | inconclusive [cytotoxic, single point]
31 | Cc1cccc(C(=O)OCC(=O)NN2C(=O)NC3(CCC(C)CC3)C2=O)c1O (configuration not stated) |  | inactive
32 | COc1cccc(-c2nc(Oc3cccc(C)c3C)c3ccccc3n2)c1O |  | inactive
33 | CC(/C=N/NC(=O)c1cc(-c2ccncc2)nc2ccccc12)=C\c1ccco1 |  | active: 0.891 µM
34 | COC(=O)CSC1=C(C#N)C(c2ccsc2)CC(=O)N1 (configuration not stated) |  | inconclusive [cytotoxic, single point]
35 | O=[N+]([O-])c1ccc(-c2nnc3cccc(Cl)n23)cc1 |  | inconclusive [rising, partial curve]
36 | COc1ccc(NS(=O)(=O)c2cc(NC(=O)c3ccc(Cl)cc3)ccc2N2CCOCC2)cc1 |  | active: 2.31 µM
37 | CC1CC(C)CN(CCCNC(=O)c2cn(C)c3ccc(S(=O)(=O)N4CCCC4)cc3c2=O)C1 (configuration not stated) |  | inconclusive [rising, partial curve]
38 | CC(C)(C)c1ccc(C(=O)CSc2nc3ccccc3c(=O)[nH]2)cc1 |  | inactive
39 | CCOc1ccc(-n2c(N)c(C(=O)NCc3ccco3)c3nc4ccccc4nc32)cc1 |  | inconclusive [cytotoxic, single point]
40 | COc1ccc(C(=O)N[C@H](C(=O)Nc2nc3ccccc3[nH]2)C(C)C)cc1 |  | active: 5.8 µM
41 | CCN1CCN(S(=O)(=O)c2ccc(Cl)c(C(=O)N(C)Cc3ccco3)c2)CC1 |  | inactive
42 | COc1ccc(CC(=O)NCC2CCCN(Cc3cccc(C(F)(F)F)c3)C2)cc1 (configuration not stated) | inconclusive: -19.4% [cytotoxic] | 
43 | Cc1cc(OCCCCCn2ccnc2)cc(C)c1Cl |  | inconclusive [cytotoxic, partial curve]
44 | O=C(NCc1ccc(Cl)c(Cl)c1)c1ccc2c(c1)OCO2 |  | inconclusive [cytotoxic, partial curve]
45 | CCOC(=O)CN1C(=O)C(Sc2n[nH]c(-c3ccccc3)n2)CCc2ccccc21 (configuration not stated) | inconclusive: -35.3% [cytotoxic] | 
46 | CC(=O)OCC1OC(n2ccc3ccccc32)C(OC(C)=O)C(OC(C)=O)C1OC(C)=O (configuration not stated) |  | inactive
47 | CCN1CCN(C(=O)c2cc(-c3ccc(Cl)s3)nc3ccccc23)CC1 |  | inconclusive [cytotoxic, partial curve]
